# Laboratory results: article PMC5608968 (Cell Reports, 2017)
# B1: Recombinant human His-SUMO1 (natural protein)
# chain: not shown
# notes: also called 6X-His tagged SUMO1; purified SUMO1; source: bought: Boston Biochem (UL-715)
# Molecular target: T1, FLAG-hPIASxα (human, UniProt O75928-2 1-572)
# T1 construct: also called PIAS2; source: 293T, transfected, immobilised on anti-FLAG beads
# Assay: pull-down
# Details: both partners purified
binder,measurement,value
B1,binding result,binds
